# Laboratory results from PMC6919601, “Identification of Plasmodium dipeptidyl aminopeptidase allosteric inhibitors by high throughput screening” (PLoS ONE, 2019).
# Where “and” joins values, the source holds several entries; their conditions need not be identical. Equal entries are not always repeated. Screen size: about 110,000 compounds; about 230 (0.21%) showed an effect of 50% or more. The list shows a part of the results.
# Target: DPAP1 (Plasmodium falciparum, UniProt Q8IIJ9)
# Assay: primary screen, percent inhibition; read by cleavage of a fluorogenic dipeptide substrate; higher = more effect of the substance
# Set-up: species or system P. falciparum D10 trophozoite lysates; single well
# 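Further: 30 min substrate incubation versus DMSO and 10 µM JCP410 controls.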
# Sequence of DPAP1 (Q8IIJ9 whole entry, looked up): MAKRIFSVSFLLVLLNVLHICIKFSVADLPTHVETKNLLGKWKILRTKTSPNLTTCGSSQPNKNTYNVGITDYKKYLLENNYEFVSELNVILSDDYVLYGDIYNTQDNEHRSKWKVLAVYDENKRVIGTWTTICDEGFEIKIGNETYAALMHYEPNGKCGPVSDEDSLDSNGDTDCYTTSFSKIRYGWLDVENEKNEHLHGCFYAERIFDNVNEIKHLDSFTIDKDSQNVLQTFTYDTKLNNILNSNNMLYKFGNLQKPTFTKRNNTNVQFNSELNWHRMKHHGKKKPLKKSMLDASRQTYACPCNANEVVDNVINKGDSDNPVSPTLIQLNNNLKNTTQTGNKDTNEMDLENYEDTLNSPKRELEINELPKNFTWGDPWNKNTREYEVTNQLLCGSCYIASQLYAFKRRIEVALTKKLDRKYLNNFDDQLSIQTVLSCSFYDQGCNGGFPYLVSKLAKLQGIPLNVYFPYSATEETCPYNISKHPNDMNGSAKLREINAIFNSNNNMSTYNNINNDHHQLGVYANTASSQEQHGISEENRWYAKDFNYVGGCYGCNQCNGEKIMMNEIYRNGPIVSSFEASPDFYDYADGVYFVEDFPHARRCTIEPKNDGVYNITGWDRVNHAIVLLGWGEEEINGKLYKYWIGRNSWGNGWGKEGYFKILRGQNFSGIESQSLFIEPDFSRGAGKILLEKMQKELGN
row,Compound,% Inhibition @ 10 uM
1,Cc1ccccc1C(=O)N1CCC(C(=O)NC(C)C)CC1,-5.32%
2,CC(C)NCC(O)c1ccc(C2CCCC2)cc1 (stereo not drawn),-3.9%
3,Cc1cc(Cl)ccc1-n1nnnc1SCc1nc2ccccc2[nH]1,2.17%
4,c1ccc(NCn2nnc3ccccc32)nc1,3.32%
5,Cc1cccc(C(=O)Nc2ccc(S(=O)(=O)Nc3cnc4ccccc4n3)cc2)c1,-3.26%
6,CC1=C(C)CC(C(=O)Nc2ccccc2F)C(C(=O)O)C1 (stereo not drawn),2.5%
7,O=C(Nc1ccccc1)c1ccc(COc2ccccc2)cc1,-0.312%
8,O=c1oc(-c2cccs2)nc2sc3c(c12)CCC3,-1.5%
9,N#CC1=C(N)Oc2cc(O)ccc2C1c1ccc2ccccc2c1 (stereo not drawn),9.41%
10,CCCC1CCc2c(O)nc3ccccc3c2O1 (stereo not drawn),2.48%
11,CC1(C)CC(=O)C2=C(C1)N(c1c(F)cccc1F)C(N)=C(C#N)C2c1ccccc1 (stereo not drawn),-3.46%
12,COc1cc(-c2[nH]nc3c2C(c2ccccc2Br)C(C#N)=C(N)O3)cc(OC)c1OC (stereo not drawn),-1.08%
13,CCOc1cc(CN2CCCCCC2)ccc1OC,-5.41%
14,O=C1CCCC2=C1C(c1ccc(-c3ccccc3)cc1)C1=C(CCCC1=O)O2,-2.6%
15,CC(C)(C)NC(=O)c1cccc(Oc2ccc([N+](=O)[O-])cc2)c1,-4.23%
16,OCCCn1c(-c2ccc(F)cc2)cs/c1=N\c1ccc(Cl)cc1,-3.95%
17,CC(C)CN(CC(C)C)S(=O)(=O)c1ccc(-c2ccc(O)nn2)s1,-1.97%
18,Cc1cccc(C(=O)Nc2sc3c(c2C(=O)NCC2CCCO2)CCC3)c1 (stereo not drawn),6.35%
19,O=C(Cn1cc(S(=O)(=O)Cc2ccccc2F)c2ccccc21)NC1CCCCC1,1.25%
20,C=Cc1ccc(Cn2c(C(=O)O)c(CNCc3ccc(C)cc3)c3ccc(C)cc32)cc1,0.359%
21,CC1(C)CC(O)=C/C(=N/CCCN2CCCC2=O)C1,7.63%
22,Cc1ccc(C2=CC(c3ccccc3OC(F)F)n3nnnc3N2)cc1 (stereo not drawn),0.219%
23,Cc1ccc(C2N=C(SCCC(C)C)NC(c3ccc(C)cc3)C23C(=O)NC(=O)NC3=O)cc1 (stereo not drawn),1.5%
24,COc1ccc(/C=C/c2onc(C)c2S(=O)(=O)N2CCC(C(=O)O)CC2)cc1,-2.17%
25,C=CCOc1ccc(CNCCCSc2nnnn2C)cc1,0.596%
26,COc1cc(=O)[nH]c(=O)n1C(=O)Cc1ccccc1,0.756%

row,Compound,% Inhibition @ 10 uM
1,O=C(NCC1CCCO1)c1csc2c1CCCC2 (stereo not drawn),0.277%
2,CCNc1oc(Cc2cccc3ccccc23)nc1C#N,3.92%
3,Cc1ccccc1C1CC(=O)N2CN(Cc3ccco3)CSC2=C1C#N (stereo not drawn),26%
4,N#CC1=C(N)N(c2ccc(C(N)=O)cc2)C2=C(CCC2)C1(C(F)(F)F)C(F)(F)F,-3.9%
5,Cc1ccc(S(=O)(=O)N2CCN(Cc3cc(C(C)C)ccc3O)CC2)cc1,-3.04%
6,CCOC(=O)C1=C(CN2CCn3cccc3C2C)NC(=O)NC1c1ccc(Cl)cc1 (stereo not drawn),-1.03%
7,COc1ccc2c(c1)C1CC(C)(O2)N(C)C(=O)C1S(=O)(=O)c1ccc(C(C)(C)C)cc1 (stereo not drawn),2.57%
8,N#CCNC(=O)[C@H](CSCc1cccnc1)NC(=O)c1ccccc1,-3.49%
9,COC(=O)n1c(SCC(=O)Nc2ccc(Cl)cc2)nc2ccccc21,-1.22%
10,CC(C)c1cccc(C(C)C)c1OCCN1CCCC1,2.7%
11,COc1cc(C2C(C#N)=C(N)OC(C)=C2C(C)=O)cc(OC)c1OC (stereo not drawn),-0.99%
12,Cc1ccccc1CS(=O)(=O)Cc1ccc(C(=O)NC2CCCC2)o1,3.24%
13,CN1CCC(NCCC2=CCCCC2)CC1,-0.0953%
14,CCOc1ccc2ccccc2c1/C=C1\N=C(SCC)SC1=O,-1.07%
15,COc1ccc(C(N)=O)cc1NC(C)=O,6.11%
16,CCN1CCN(Cc2c(NC(=O)c3ccc(F)cc3)sc3c2CCC3)CC1,6%
17,CC1CCC(NCc2ccc3c(c2)OCO3)C1 (stereo not drawn),-4.95%
18,Nc1ccc(Nc2nc(-c3ccccc3)cs2)cc1,-0.711%
19,N#C/C(=C\c1cc2c(cc1Br)OCO2)c1nc2ccccc2[nH]1,-1.44%
20,Cc1sc2nc3c4ccccc4c(N4CCC(C)CC4)nn3c(=O)c2c1C,3.29%
21,CCOCC(O)CSc1nc2ccccc2s1 (stereo not drawn),-2.36%
22,CC1CC(C)(C)NC(=S)N1CCC(=O)N1CCc2ccccc2C1 (stereo not drawn),4.33%
23,CCOC(=O)c1c(-c2ccccc2)csc1NC(=O)C1Cc2ccc(C)cc2C(=O)O1 (stereo not drawn),0.221%
24,Cc1ccc(C(=O)Nc2ccc(CC(=O)O)cc2)cc1C,2.46% and 0.163%
25,CCCN(CCC)C(=O)c1ccccc1NC(=O)c1cccs1,9.6%
26,COc1ccccc1OCc1nc(C#N)c(NCCc2ccccc2)o1,-2.77%

row,Compound,% Inhibition @ 10 uM
1,N#CCNC(=O)[C@H](Cc1ccc2ccccc2c1)NC(=O)c1ccc(-c2csc(Nc3ccncc3)n2)cc1,2.22%
2,O=C(CCc1ccccc1)NCCc1nc2ccccc2[nH]1,0.222%
3,Cc1nn2c(=O)c(NC(=O)c3ccccc3)cnc2s1,-1.52%
4,Oc1cc(-c2ccccc2)nc(SCCOc2ccccc2)n1,2.17%
5,C/N=C/C1=C(O)c2ccccc2C1=O,-1.4%
6,CCS(=O)(=O)N1CCN(Cc2noc(CCC(=O)N3CCOCC3)n2)CC1,1.41%
7,COc1cc2c(cc1OC)-c1nnc(-c3cccs3)n1C(C)(C)C2,-4%
8,CCOc1ccc(CNc2nc3ccccc3n2CCN2CCOCC2)cc1,-6.96%
9,COc1cc2nc(NCCCN(C)Cc3ccccc3)n3nc(-c4ccccc4)nc3c2cc1OC,2.6%
10,Cc1nn(C)c(C)c1NC(=O)c1ccnn1C,2%
11,CC(=O)N1CCC2(CC1)CC(=O)c1cc(OCC(=O)NCc3ccccc3Cl)ccc1O2,1.37%
12,COc1ccc(Cn2ccc3nc(C)c(C(=O)N4CCC(C)CC4)cc3c2=O)cc1,-0.656%
13,COc1cc(/C=C/c2nc(C#N)c(N3CCC(C(N)=O)CC3)o2)cc(OC)c1OC,2.54%
14,O=C(c1cccnc1)N1CCN(C(=O)c2cccc(F)c2)CC1,3.27%
15,O=C(Cc1ccccc1)Nc1ccc(-c2ccccc2)cc1[N+](=O)[O-],-4.58%
16,Cc1nn(-c2ccccc2)c2c1C(C(F)(F)F)(C(F)(F)F)N=C(N1CCOCC1)O2,-5.4%
17,O=C(O)c1cccc2c1C(=O)N(Cc1cccnc1)C2,-6.67%
18,Cn1c(=O)c2sccc2n2c(CCCC(=O)NCCC3=CCCCC3)nnc12,0.6%
19,COc1ccc(-c2nc(-c3ccc(C)cc3)no2)cc1,0.0538%
20,CCO/C(O)=C/c1nc2nonc2nc1O,-9.83%
21,COc1ccc(C2CC(=O)C3=C(C2)NC(=O)CC3c2ccccc2C)cc1OC (stereo not drawn),-2.87%
22,COc1cc(C(=O)NCc2cccnc2)ccc1OCc1ccc(Cl)cc1,-1.57%
23,Cc1c(C(=O)O)oc2c1C(=O)CCC2,3.24%
24,CC(C(=O)NCCC1=CCCCC1)n1ncn2cccc2c1=O (stereo not drawn),-8.23%
25,CC(C)OCCCNC(=O)Cn1nc(-c2ccc(Cl)cc2)ccc1=O,-1.79%
26,Cc1ccc(Cc2cnc(NC(=O)/C(C#N)=C/c3ccccc3)s2)cc1,-5.92%

row,Compound,% Inhibition @ 10 uM
1,CCCN1CCC(NCCc2cccc(F)c2)CC1,1.88%
2,Cc1ccc(CNC(=O)C2CCN(S(=O)(=O)N3CCOCC3)CC2)cc1,0.387%
3,COc1ccc(OCC(O)Cn2c(N)nc3c2c(=O)[nH]c(=O)n3C)cc1 (stereo not drawn),-0.053%
4,Cc1ccc2c(c1)cc1c(=O)n(CC(=O)NCC(C)c3ccccc3)nc(C)n12 (stereo not drawn),1.68%
5,O=C(CCc1nc(CN2CCN(S(=O)(=O)c3cccs3)CC2)no1)N1CCCC1,-0.899%
6,COc1ccccc1N1CCN(C(=O)c2cccc(C)c2)CC1,-2.32%
7,N#C/C(=C/c1cccnc1)c1nc(-c2ccccc2)cs1,0.385%
8,Cc1ccccc1OC(C)C(=O)Nc1nc2ccccc2s1 (stereo not drawn),2.03%
9,CCOc1ccc(C2C(C(=O)c3ccc4c(c3)OCCO4)=C(O)C(=O)N2CC2CCCO2)cc1 (stereo not drawn),-6.4%
10,COc1ccc(-c2csc(Nc3cccc4ccccc34)n2)cc1,1.96%
11,Cn1cc([N+](=O)[O-])c(C(=O)n2cccn2)n1,-1.29%
12,CCc1ccc(CC(=S)N2CCOCC2)cc1,1.41%
13,CC1(C)CC2=NC3=C(C(=O)CC(C)(C)C3)C(c3cccc(OCC(=O)Nc4ccccc4)c3)C2=C(O)C1 (stereo not drawn),0.983%
14,CCOc1ccc(C(=O)C2=C(O)C(=O)N(CCCN(C)C)C2c2ccc(C)cc2)c(C)c1 (stereo not drawn),-0.178%
15,O=C(CCN1C(=O)C2CC=C(Cl)CC2C1=O)Nc1ccc(Br)cc1 (stereo not drawn),5.18%
16,Cc1ccccc1NC(=O)C(Cc1ccc([N+](=O)[O-])cc1)N1C(=O)c2ccccc2C1=O (stereo not drawn),9.92%
17,COc1ccc(N2C(=O)CC(N3CCN(c4ccccc4F)CC3)C2=O)cc1 (stereo not drawn),-1.96%
18,CC(C)CNC(=O)CSCc1c(Cl)cccc1Cl,-4.03%
19,Nc1c2c(nc3c1CCC3)CCCC2,-4.23%
20,CCOc1cccc(-c2cc(C(=O)Nc3cc(C)on3)c3ccccc3n2)c1,-3.04%
21,CCCNC(=O)CCCn1nc(C)n2c(cc3sccc32)c1=O,-1.58%
22,CN(CCc1ccccn1)Cc1ccc(F)c(Br)c1,3.48%
23,Cc1cccc(Cn2c(CN3CCN(Cc4ccccc4)CC3)nc3c2c(=O)n(C)c(=O)n3C)c1,1.23%
24,COCCNC(=O)c1cccc2c1C(=O)N(C1CCCCC1)C2,4.01%
